PubChem BioAssay AID1794842 (National Center for Advancing Translational Sciences (NCATS), 2023)
Screen size: about 2,800 compounds; fewer than 10 were called active. Calls come from the whole dose curve; as a rule, active = well fitted curve in the direction sought with a large enough effect; inconclusive = small, poorly fitted or top-dose-only effect, or another doubt; inactive = no such curve, though single readings can be large or run the other way. This is one part of the list.

What follows are compounds tested against Metallo-beta-lactamase type 2 (Klebsiella pneumoniae) (UniProt C7C422) (assay: qHTS to identify inhibitors of the New Delhi Metallo-beta-lactamase (NDM): Meropenem screen against the machine-based learning selections.). Settings: Purified NDM-1, meropenem hydrolysis, absorbance 300 nm; at 38.4 µM (top of the series) unless noted.
Sequence of UniProt C7C422 (C7C422 whole entry, looked up): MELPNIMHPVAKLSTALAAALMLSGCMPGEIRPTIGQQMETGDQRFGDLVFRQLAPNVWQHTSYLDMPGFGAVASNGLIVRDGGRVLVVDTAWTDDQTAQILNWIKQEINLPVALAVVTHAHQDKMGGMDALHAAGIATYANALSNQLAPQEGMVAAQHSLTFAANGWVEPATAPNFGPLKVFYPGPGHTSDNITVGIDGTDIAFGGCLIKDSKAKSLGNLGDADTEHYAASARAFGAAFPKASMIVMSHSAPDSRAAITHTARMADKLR
Description: Assay Submitter (PI): James Inglese Ph.D., Patricia Dranchak Ph.D., Mahesh Aitha Ph.D. Assay Development and Screening Technology Laboratory (ADST) National Center for Advancing Translational Sciences (NCATS), Rockville, MD National Institute of Health (NIH), Bethesda, Maryland The metallo-beta-lactamases (MBL) are a main antibiotic resistance mechanism evolved by bacteria. There is an urgent clinical need for MBL inhibitors to mitigate this growing threat. To support a machine-based learning study, qHTS has been used to experimentally test inhibitors identified by prediction tools.
PROTOCOL TABLE (as described by Inglese et al., 2007) SEQUENCE No. (e.g., 1, 2, 3, etc.); […] (e.g., enzyme, Incubation, Reagent, etc.); VALUE; DESCRIPTION Primary Screen 1; NDM-1; 4 uL of 3 nM enzyme [2 nM final] in 50 mM HEPES (pH 7.0), 1 uM […], 0.01% Tween20; Use BioRaptr to dispense into two sets of Aurora black, clear bottom high base 1536-well plates 2; Compounds; 23 nL; Use Pin Tool (Wako) to transfer DMSO control and library compounds in DMSO 3; Incubate; >30 min 4a; Reagent; 2 uL of 50 uM nitrocefin [16.7 uM final] to one set of assay plates 4b; Reagent; 2 uL of 150 uM meropenem [50 uM final] to second set of assay plates 5a; Incubate; 15 min 5b; Incubate; 30 min 6a; Detector; Absorbance at 485 nm (bandwidth = 5 nm, 25 flashes/well) on Tecan Infinity 6b; Detector; Absorbance at 300 nm (bandwidth = 5 nm, 25 flashes/well) on Tecan Infinity NOTES (numbers refer to sequence above) 1; Column 1 of each plate received assay buffer without enzyme and columns 2-48 received enzyme for a final assay concentration of 2 nM. 2; Control plate contained DMSO in columns 1, 2, 3, and 4. 3; Compound interaction with enzyme. 4; Nitrocefin and meropenem substrates were prepared in the same assay buffer as step 1 for a final assay concentration of 16.7 uM and 50 uM, respectively, and added to all wells across respective sets of assay plates. 5; Default reader settings were applied for absorbance read at 485 nm (nitrocefin) or 300 nm (meropenem), bandwidth = 5 nm, 25 flashes/well. References: Inglese J, Shamu CE, Guy RK. 2007. Reporting data from high-throughput screening of small-molecule libraries. Nat Chem Biol. doi:10.1038/nchembio0807-438 Yasgar A, Shinn P, Jadhav A, Auld D, Michael S, Zheng W, Austin CP, Inglese J, Simeonov A. 2008. Compound Management for Quantitative High-Throughput Screening. J Lab Autom 13:79 - 89. doi:10.1016/j.jala.2007.12.004
Note: % of control where 0% means no effect.

Activity change, negative = inhibition, inactive:
O=c1c2nc(NCc3cccs3)ccc2ncn1Cc1ccccc1 6.33% [at 57.5 µM]
NC(=O)c1cccc(-c2cc(-c3cccnc3)c3cncn3c2)c1 17% [at 57.5 µM]
CCOCCN1C(=O)COC[C@@H]1[C@H](O)c1ccc(NC(=O)Nc2ccccc2)cc1 0.857% [at 57.5 µM]
NC(=O)CN1C(=O)[C@@H]2CN(C(=O)CC3(CC(=O)O)CCCC3)CCN2C1=O -1.04% [at 57.5 µM]
Cc1ccc2c(c1)C(C[C@H]1CN(C(=O)NC(C)C)CC[C@H]1CC(=O)O)=NCC2 4.46% [at 57.5 µM]
CC(C)Cc1cc(C(=O)N2C[C@H](C3CC3)[C@@H](N)C2)n(C)n1 1.75%
CC(C)NC(=O)CC[C@@H]1CNC(=O)[C@@H]2C[C@H](NCc3ccc(CO)o3)CN12 37.5% [at 57.5 µM]
Cc1nc(N)nc(C)c1CC(=O)N1CC[C@@H](NC(=O)c2cccnc2)[C@H](O)C1 0.116%
OC(c1ccccc1)c1nc(Nc2ccc(Cl)cc2F)n[nH]1 (stereo not drawn) 0.643% [at 57.5 µM]
CN(C)C(C(=O)N1CCN(Cc2nccn2C)CC1)c1cccc(F)c1 (stereo not drawn) -0.919%
COc1ccc(CN2C[C@H]3CN(Cc4cnn(C)c4)CCN3C2=O)cc1 -0.735% [at 57.5 µM]
COc1ccccc1C(=O)N[C@H]1[C@H](O)[C@H](O)C[C@@H]1c1ccc(N2CCOCC2)nc1 4.99% [at 57.5 µM]
NC(=O)NCc1cn(C2CCN(Cc3cc4ccccc4s3)CC2)nn1 27.6%
CCc1nncn1C1CCN(S(=O)(=O)c2ccc(F)cc2)CC1 -1.61%
CC(C)(C)c1ccc(-c2cc(C[C@H]3CNCC[C@H]3CC(=O)NCc3ccc(F)cc3)no2)cc1 -1.38%
OC1(CNc2cc(C(F)(F)F)nc(N3CCCC3)n2)CCCNCC1 (stereo not drawn) 67.7%
CC(C)=CC(=O)N1CC[C@H](NC(=O)Nc2ccc(F)cc2F)[C@H]1C(=O)N[C@@H](Cc1cccs1)C(N)=O -1.7%
O=C1COc2cc(C(=O)NCC3CCOc4ccccc4C3)ccc2N1 (stereo not drawn) 6.57%
O=C(NC1CC(c2nnc(CO)n2C2CC2)C1)c1ccc(F)cc1Cl (stereo not drawn) 0.242%
OCC1CNCCC12CCN(Cc1ccc3ccccc3c1)CC2 (stereo not drawn) 0.91%
Cn1cc(CN2CCOC[C@H](Oc3ccc(S(C)(=O)=O)cc3)C2)c2ccccc21 5.48% [at 57.5 µM]
CC(C)c1cc(CN(C)C(=O)CN2C(=O)COc3cccnc32)on1 -0.366%
CC1(C(=O)NCc2ccccc2)COCc2cnc(Nc3ccccc3)nc21 (stereo not drawn) 1.53% [at 57.5 µM]
COc1cc2c(cc1OC)CN(C(=O)C[C@@H]1CCNC[C@@H]1Cc1cc(CN3CCCCC3)on1)CC2 0.985%
Fc1ccc(-c2nnc3ccc(NC4CCC4)nn23)nc1 10.6% [at 76.7 µM]
CN(C)CCN(C)CC[C@H]1CN(C(=O)c2ccc(F)cc2)CC[C@H]1CC(=O)O 43.7% [at 57.5 µM]
CC(C)C[C@@H]1N[C@H](C(=O)NC(C)C)Cc2cn(Cc3ccncc3)c3cccc1c23 3.63% [at 57.5 µM]
COc1ccc(CN2CC3(C2)C(=O)N(Cc2cccc(Cl)c2)C(=O)[C@@H]2C[C@@H](O)CN23)c2ccccc12 -4.6%
O=C(c1cccnc1)N1CC[C@H](c2nnc(Cc3ccccc3)o2)C1 -3.47% [at 57.5 µM]
Cc1noc2c(-c3cccc(O)c3)cc(-c3ccccc3)nc12 2.12% [at 57.5 µM]
CCn1cc(CN2CCC(Oc3ccc4ccccc4c3)(C(=O)O)CC2)cn1 5.91%
CCC1=C(C(=O)OC)C(c2ccccc2OC)N2C(CC(=O)N3CC(C)OC(C)C3)=CSC2=N1 (stereo not drawn) 8.79%
Oc1ccccc1CN1CCNc2cc(Nc3ccccc3)ncc2C1 4.83% [at 57.5 µM]
COc1ccc(N2CCN(C3CCCN(C(=O)C(C)(C)N)C3)CC2)cc1 (stereo not drawn) 44.4%
CC(C)(O)CCc1cccc(C(=O)NCC(O)c2ccccc2Cl)c1 (stereo not drawn) -0.8%
CC(=O)NCC1(COc2cccnc2)C[C@@H](O)[C@@H](O)C1 (stereo partly drawn) 38.7% [at 76.7 µM]
CC(=O)c1ccc(NC(=O)N2C[C@@H]3C[C@H](C2)c2ccc(NC(=O)C4CCCCC4)c(=O)n2C3)cc1 3.71%
CS(=O)(=O)N1C[C@H]2CCN(C(=O)c3ncccc3F)C[C@H]21 1.01%
O=C(c1cn2ccccc2n1)N1C[C@@H](CO)[C@H](c2ccncc2)C1 10.1%
CC(C)NC(=O)C[C@@H]1O[C@H](CNCc2cccc(Cl)c2)[C@@H](O)[C@H]1O 61.2% [at 57.5 µM]
CCn1nc(CC(C)C)cc1C(=O)N1CCN(CCn2cccc2)CC1 18.2%
CN1CCCC1c1nc(C2CN(C(=O)c3ccsc3)C2)no1 (stereo not drawn) 1.31%
O=C1[C@H]2CN(S(=O)(=O)c3ccc(F)cc3)CCN2C(=O)N1CCO 3.06% [at 57.5 µM]
COc1ccccc1-c1[nH]nc2ncc(C(=O)NCCc3ccccn3)nc12 5.94% [at 57.5 µM]
Cc1oc(C(O)c2cccc(O)c2)nc1C(=O)Nc1ccc2c(c1)CNC2=O (stereo not drawn) 8.63% [at 57.5 µM]
COc1ccc(CN2CCNc3cc(Nc4ccccc4)ncc3C2)cc1 -2.91% [at 57.5 µM]
CCC(=O)N1CCC(c2nc(C3CCOCC3)no2)C1 (stereo not drawn) 0.793%
c1ccc(-c2cc3c(cn2)CN(Cc2ccc4[nH]ccc4c2)CCN3)cc1 3.54% [at 57.5 µM]
COc1cccc(C(=O)N2CCOC[C@H](Oc3cccnc3)C2)c1 -2.14% [at 57.5 µM]
CCCS(=O)(=O)N1CCC(Cc2nc(-c3cccnc3)n[nH]2)C1 (stereo not drawn) -0.189%
COc1ccc(CC2(CO)CCNCC2)cc1 0.626%
CC1(C)[C@H](Cc2cc(COc3ccccc3)on2)C[C@@H]1NC(=O)Nc1ccccc1 3.99% [at 57.5 µM]
NC(=O)Cc1c[nH]c2ncc(-c3ccc(Oc4ccccc4)cc3)cc12 -0.408% [at 57.5 µM]
O=c1c2nc(Nc3cccc(F)c3)ccc2ncn1Cc1ccccc1 7.45% [at 57.5 µM]
CCN(CC)C(=O)[C@@H]1CCC[C@@H](NC2CCOCC2)CN(C)C(=O)C1 2.69% [at 57.5 µM]
O=C(Cc1c[nH]c2ncc(-c3cccnc3)cc12)Nc1ccccc1 9.49% [at 57.5 µM]
O=C(c1ccn[nH]1)N1CCN(Cc2cnn3cccnc23)CC(O)C1 (stereo not drawn) -1.33%
CC1(C(=O)NCc2ccncc2)CCCc2cnc(Nc3ccccc3)nc21 (stereo not drawn) 6.27% [at 57.5 µM]
Cc1ccsc1C(=O)N1CCN(c2cc(-c3ccccc3)[nH]n2)CC1 0.473%
CC[C@H]1CN(C(=O)Nc2cccc(C(F)(F)F)c2)CC[C@H]1CC(=O)NC1CC1 0.437% [at 57.5 µM]
CCCC1c2nccn2CCCN1C(=O)c1ccoc1C (stereo not drawn) -0.934%
CC(=O)N[C@@H]1C=C[C@@H](c2c(C)nn(-c3ccc(C)c(Cl)c3)c2C)C1 -2.38% [at 57.5 µM]
Cc1c(-c2ccc(F)cc2)[nH]c2ccc(CNC(=O)c3n[nH]c4c3CCCC4)cc12 1.02%
CC1=C[C@@H](CNC(=O)c2ccc(F)cc2)[C@H](C(C)C)C[C@H]1Cc1nnc(-c2ccncc2)o1 -0.185%
O=C1Cc2c(-c3cccc4ccccc34)n[nH]c2CN1Cc1ccccc1 7.99% [at 57.5 µM]
CC(=O)N[C@H]1C[C@@H](Cc2cc(CN3CCCCC3)on2)C1(C)C -1.91% [at 57.5 µM]
c1ccc(CNc2ncc(CN3CCC4(CCNCC4)C3)cn2)cc1 63.7%
CCNC(=O)N1C[C@@H](F)[C@@H](OCc2nc3ccc(C)cc3[nH]2)C1 -3.74% [at 57.5 µM]
COc1ccc(C2Cn3nnc(C(=O)N4CCN(C(=O)c5cc(F)ccc5Cl)CC4)c3CO2)cc1 (stereo not drawn) -0.346%
COc1ccc(CN2C[C@H]3CN(Cc4ccc5c(c4)OCCO5)CCN3C2=O)cc1 1.8% [at 57.5 µM]
Cc1cccc(C(=O)N2CC[C@@H](NC(=O)c3cnccn3)[C@H](O)C2)n1 0.0934%
O=C(NCCc1ccc(F)cc1)C1CN(c2ccccc2)C(=O)N1 (stereo not drawn) -0.594% [at 57.5 µM]
COc1ccccc1-n1cc(-c2ccnc(N3CC(n4cccn4)C3)n2)cn1 -4.55%
COCCNC(=O)c1ccc2c(c1)N(C)C(CC(=O)Nc1ccc(N)nc1)CO2 (stereo not drawn) -0.622%
CN(C)Cc1nnc(C2CCN(C(=O)Nc3cccc(C#N)c3)CC2)n1C 1.12%
Cc1cccc(OCC2CCCN(C(=O)c3sc(C(C)C)nc3C)C2)c1 (stereo not drawn) 1.91%
CN1C(=O)COC[C@@H]1[C@H](O)c1ccc(NC(=O)Nc2ccccc2)cc1 -0.431% [at 57.5 µM]
Cc1noc(C)c1-c1cnc2[nH]cc(CC(=O)NCc3cccnc3)c2c1 7.57% [at 57.5 µM]
